The other results are listed elsewhere or left out.

This experiment deals with T1, OsWOX13 (Oryza sativa, UniProt Q5QMM3 1-267).
T1 sequence: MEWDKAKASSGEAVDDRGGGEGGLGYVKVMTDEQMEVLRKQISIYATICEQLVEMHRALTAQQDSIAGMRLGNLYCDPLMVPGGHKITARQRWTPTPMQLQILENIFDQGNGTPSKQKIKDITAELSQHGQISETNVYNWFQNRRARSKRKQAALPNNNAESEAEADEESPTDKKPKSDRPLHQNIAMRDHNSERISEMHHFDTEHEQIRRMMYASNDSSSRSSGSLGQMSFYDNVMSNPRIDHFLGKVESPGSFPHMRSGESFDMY
The experiment can be described thus: protein-binding microarray (RPBM); PBS, 2% BSA, 51.3 ng/ul salmon testes DNA, 50 uM zinc acetate, 200 nM TF, 25 C, 1 h; high values mean tight binding. The conditions noted are these: protein: recombinant; tags: N-terminal polyhistidine and DsRed monomer fusion (pET32a); label: CyDye5-dUTP incorporated in the synthesized complementary strand; 3' TTTTT single-stranded linker to array surface; dsDNA, one strand shown. In outline: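 The binding signal is fluorescence intensity per feature, in arbitrary units, read on an Axon 4000B scanner. Polyhistidine- and DsRed-tagged transcription factors (N-terminal fusions) from E. coli BL21-CodonPlus were purified on Ni–NTA and applied at 200 nM for 1 h at 25 °C to a double-stranded, BSA-blocked custom Agilent array in buffer with 50 µM zinc acetate.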
Consider “GTTCTGCTAATCTGTAATGTTTCTTTTGTTTGTCATATCTCGGAGTCACCTAGTGCAG”, for which the binding signal is 4070 fluorescence intensity (a.u.).

For the sequence “TGGTTTCAATAATCAGGGGTCGTGATATATGGTATTATGGCGGAGTCACCTAGTGCAG”, the binding signal is 3210 fluorescence intensity (a.u.).

With “CCAAAACGCCCAAATTATGTTCCAATTGAGGTTGCTGGCACGGAGTCACCTAGTGCAG”, the binding signal is 5610 fluorescence intensity (a.u.).

In the case of “AGTATATACTTTTGTTGATTGCATTCTTTCCTTTTCTTTTCGGAGTCACCTAGTGCAG”, the binding signal is 4550 fluorescence intensity (a.u.).

With “CTTTAAATTTTAACTTTTGCATTGGCTTATTAGACCAACTCGGAGTCACCTAGTGCAG”, the binding signal was 4620 fluorescence intensity (a.u.).

Take “CTGAAACTGATTGAACTTTTGTCCATTTTCAGATCGTGTACGGAGTCACCTAGTGCAG”: the binding signal was 49400 fluorescence intensity (a.u.).

Take “GTTTCGTCTCGTAATTTACACGCAATCTGTGTAATTAGTTCGGAGTCACCTAGTGCAG”: the binding signal is 7230 fluorescence intensity (a.u.).

On to “AAGTAATTATTTATTCTTTTCATATCATTTGATTCATTGTCGGAGTCACCTAGTGCAG”, for which the binding signal was 20800 fluorescence intensity (a.u.).

Consider “GTCAAATCATGATGTAATTACACTCAGAAGATTCGTCTCGCGGAGTCACCTAGTGCAG”, for which the binding signal is 29200 fluorescence intensity (a.u.).

Take “GGCATAAATTTAGAGACTGTACGTTTTGTACTTGGTGTGACGGAGTCACCTAGTGCAG”: the binding signal was 4530 fluorescence intensity (a.u.).

For the sequence “TGTCAATCAACAGTCGGCACATATGTGGTAAGTCTCGCACCGGAGTCACCTAGTGCAG”, the binding signal is 24700 fluorescence intensity (a.u.).

Take “TGTTGACAACTAATCAATTGCAATAAGTAACGTGTTAGGTCGGAGTCACCTAGTGCAG”: the binding signal is 32900 fluorescence intensity (a.u.).

“TAAAACAATCAATTTCTCAACAACAGTCCAGTTAGTATCACGGAGTCACCTAGTGCAG”: the binding signal was 7030 fluorescence intensity (a.u.).

For the sequence “AATGATAACACATGATTAATACTTTATGCGTGACTTGTCTCGGAGTCACCTAGTGCAG”, the binding signal is 17400 fluorescence intensity (a.u.).

As for “GGATATTTGGATAATTATCGAATCTAAAAGTGGCAAATATCGGAGTCACCTAGTGCAG”, the binding signal was 5840 fluorescence intensity (a.u.).

With “ATTAATCTATGATTTGCTACAGTGATGCTACAGTATTCATCGGAGTCACCTAGTGCAG”, the binding signal is 13500 fluorescence intensity (a.u.).

Take “GTATTAATCATGTTTTATCATCTAACAACAATGAAAATACCGGAGTCACCTAGTGCAG”: the binding signal is 4830 fluorescence intensity (a.u.).

For “AAAATTGGATATATCCTTTCCTTCACCCAGTATTCAAGTTCGGAGTCACCTAGTGCAG”, the binding signal was 3350 fluorescence intensity (a.u.).

“CCGCTTCATCCGCCATGATTGCTGCAACTACTTAGGGTTACGGAGTCACCTAGTGCAG”: the binding signal is 6670 fluorescence intensity (a.u.).

In the case of “TTGTTAATCATGCAATTATGATAAATTTACAGCTATATGTCGGAGTCACCTAGTGCAG”, the binding signal was 17700 fluorescence intensity (a.u.).

Turning to “CGCCCTTTAATTTTATGCTTTTGAATATGGAATCAGAAGGCGGAGTCACCTAGTGCAG”, the binding signal was 3680 fluorescence intensity (a.u.).

As for “AACTAAACAGCTTCTTTAATTTGAAAGCAAGCAAGGAGAGCGGAGTCACCTAGTGCAG”, the binding signal was 12300 fluorescence intensity (a.u.).

Turning to “ATTATATATTTAATAAAATTAATTTGGTGTTGTATATTTACGGAGTCACCTAGTGCAG”, the binding signal is 8780 fluorescence intensity (a.u.).

Turning to “TATAATATATGATTTCTGATTTTGTTTTACCATTATTTTGCGGAGTCACCTAGTGCAG”, the binding signal was 4940 fluorescence intensity (a.u.).

“AGAGATAATTTGAACCATATATTAATCATCTAAGGACTAACGGAGTCACCTAGTGCAG”: the binding signal was 11200 fluorescence intensity (a.u.).

As to “CTAGCTGATTATATATACTCCCTCCGTCCCTAAATATTCGCGGAGTCACCTAGTGCAG”, the binding signal was 8380 fluorescence intensity (a.u.).

Consider “AATTAATCATGGAGAATTTGATAAAATTAGATCCAACCATCGGAGTCACCTAGTGCAG”, for which the binding signal is 13600 fluorescence intensity (a.u.).

Turning to “CATATGACTGTCAACGCCGTAAATATATCTGTAATATTACCGGAGTCACCTAGTGCAG”, the binding signal was 6840 fluorescence intensity (a.u.).

Regarding “AGCTAATTAACAGCTTAATCACTTGATAAACAACTCACTCCGGAGTCACCTAGTGCAG”, the binding signal is 51700 fluorescence intensity (a.u.).

In the case of “GCGGCAATCATCTAACCGTCCATCCCGTGATCGAGCGCATCGGAGTCACCTAGTGCAG”, the binding signal was 8920 fluorescence intensity (a.u.).

Regarding “TTAATTGTTGCCGATAATAGCCATGGTTCCCTTGCCATTTCGGAGTCACCTAGTGCAG”, the binding signal was 6180 fluorescence intensity (a.u.).

For the sequence “TCAAATCATAGCATAATTAAGTTTAAAAGATTCGTCTCGCCGGAGTCACCTAGTGCAG”, the binding signal is 11600 fluorescence intensity (a.u.).

Turning to “ATAAATAAATTGGAGCTAGTAGTAGGCTATACTATTAAACCGGAGTCACCTAGTGCAG”, the binding signal is 20000 fluorescence intensity (a.u.).

As for “CGTCAATCACACAGATTAGGTCAACACCGCCACGTCAACACGGAGTCACCTAGTGCAG”, the binding signal was 22900 fluorescence intensity (a.u.).

As for “ACAATCAAATTTAAATGATTAGCCACATACAGAATCAAATCGGAGTCACCTAGTGCAG”, the binding signal is 21500 fluorescence intensity (a.u.).

With “AGGAAAATGTTAATTTGTCAGCAAGTGCATACTGGGTGCCCGGAGTCACCTAGTGCAG”, the binding signal is 11200 fluorescence intensity (a.u.).

As to “GCAAATTAATTAACTAATTAATTAAACACCCAACTAATCTCGGAGTCACCTAGTGCAG”, the binding signal was 63700 fluorescence intensity (a.u.).

Take “AGCCTTTGTTTATGTAATCAATTCTAGTGTTACTAGTAGACGGAGTCACCTAGTGCAG”: the binding signal is 5730 fluorescence intensity (a.u.).

With “ATGATTAGGTAGGCATCAGTGATTCAGTGGTAATTGCGCGCGGAGTCACCTAGTGCAG”, the binding signal is 8380 fluorescence intensity (a.u.).

On to “ACAACAATTTAATTTCTCATCTGCTATCGTACACCATAGCCGGAGTCACCTAGTGCAG”, for which the binding signal was 8700 fluorescence intensity (a.u.).

In the case of “TAAGTGATTTATACTGTCTCGGCATGGCGACCGATCTATCCGGAGTCACCTAGTGCAG”, the binding signal was 12400 fluorescence intensity (a.u.).

As to “GAGTAATTTTCTACTGGTTTTAATAGTTGAAATAGCTGTTCGGAGTCACCTAGTGCAG”, the binding signal is 3780 fluorescence intensity (a.u.).

Regarding “TGATGATTAGATAAGTTCATCGAATAAGATAAATAGTCAACGGAGTCACCTAGTGCAG”, the binding signal was 14700 fluorescence intensity (a.u.).

As for “ATAAATTAGGCGATTAGCTCTCCAATCCGGGCACAGAACCCGGAGTCACCTAGTGCAG”, the binding signal is 16300 fluorescence intensity (a.u.).

“GGAAGCCAATCAAAGCCAGCTAGGAAGTAGGACCTCTGCCCGGAGTCACCTAGTGCAG”: the binding signal is 6050 fluorescence intensity (a.u.).

“TCTTTATTTTAACAGGGCAATGACGGAAAACGTGACGGCGCGGAGTCACCTAGTGCAG”: the binding signal was 3730 fluorescence intensity (a.u.).

In the case of “AGTTTAATATGTTAATGAAGAATCTATGCACAAGGCAGCACGGAGTCACCTAGTGCAG”, the binding signal is 4380 fluorescence intensity (a.u.).

With “GCATGGACTAATATTAATTTCCTTCATTGGCATGAATGAACGGAGTCACCTAGTGCAG”, the binding signal was 3710 fluorescence intensity (a.u.).

Turning to “CATGATTGAAACATTACTTGATGGCTTCTGGTCCTACCCACGGAGTCACCTAGTGCAG”, the binding signal was 53900 fluorescence intensity (a.u.).

For “TGATACTATCAATCACTATAGCTTATCCATAGTACTATATCGGAGTCACCTAGTGCAG”, the binding signal is 8320 fluorescence intensity (a.u.).

As for “GGATCTCTTGACAGGTTCATCTTCTCTCCTGACAAGAGTCCGGAGTCACCTAGTGCAG”, the binding signal was 3430 fluorescence intensity (a.u.).

For the sequence “ATAAATTTAATTTTCTAATTCATACTAGTAATTAAAACTTCGGAGTCACCTAGTGCAG”, the binding signal was 11800 fluorescence intensity (a.u.).

For the sequence “TAAATCTAATTGTTATAGAGCCTTTATTTTCACACAAGCTCGGAGTCACCTAGTGCAG”, the binding signal is 6340 fluorescence intensity (a.u.).

On to “TTGATTTCAAATTTCACAATATGAAACGAACTCCTATGGACGGAGTCACCTAGTGCAG”, for which the binding signal was 5020 fluorescence intensity (a.u.).

Source of the values: PMC7819943, “Rice protein-binding microarrays: a tool to detect cis-acting elements near promoter regions in rice”.
